In PMC5217008:
Results are given in words; binding and its absence hold for the method and conditions named. Binding seen in cells or lysates may run through a third protein. Some binding calls cover weakened binding; strength is not graded here.

By UniProt entry, the sequences of proteins in these tests, tags left out. Where a name states a change or a piece, a line headed by the entry shows the natural chain unless it says otherwise.
UniProt P42229: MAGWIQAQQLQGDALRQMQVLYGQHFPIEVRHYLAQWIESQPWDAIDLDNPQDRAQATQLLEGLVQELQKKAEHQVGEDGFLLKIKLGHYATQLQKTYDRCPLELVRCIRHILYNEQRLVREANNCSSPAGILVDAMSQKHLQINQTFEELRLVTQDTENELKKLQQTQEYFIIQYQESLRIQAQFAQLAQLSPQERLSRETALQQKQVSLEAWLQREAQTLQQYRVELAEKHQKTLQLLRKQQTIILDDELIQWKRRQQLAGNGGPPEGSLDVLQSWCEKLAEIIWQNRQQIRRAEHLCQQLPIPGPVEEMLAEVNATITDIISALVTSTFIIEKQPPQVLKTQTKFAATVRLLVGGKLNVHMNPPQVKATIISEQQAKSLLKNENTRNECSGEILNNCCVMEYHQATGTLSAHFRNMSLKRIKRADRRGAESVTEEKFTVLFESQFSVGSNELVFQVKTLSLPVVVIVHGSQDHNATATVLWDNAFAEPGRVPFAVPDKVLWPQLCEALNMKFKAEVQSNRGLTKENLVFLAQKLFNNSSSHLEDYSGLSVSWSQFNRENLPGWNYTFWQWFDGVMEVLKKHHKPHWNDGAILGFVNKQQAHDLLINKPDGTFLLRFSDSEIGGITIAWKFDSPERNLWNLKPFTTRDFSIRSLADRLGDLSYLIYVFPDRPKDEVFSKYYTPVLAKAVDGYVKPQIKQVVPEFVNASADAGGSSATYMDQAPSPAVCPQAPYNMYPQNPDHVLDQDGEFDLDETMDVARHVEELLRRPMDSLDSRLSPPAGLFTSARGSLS
UniProt P14618: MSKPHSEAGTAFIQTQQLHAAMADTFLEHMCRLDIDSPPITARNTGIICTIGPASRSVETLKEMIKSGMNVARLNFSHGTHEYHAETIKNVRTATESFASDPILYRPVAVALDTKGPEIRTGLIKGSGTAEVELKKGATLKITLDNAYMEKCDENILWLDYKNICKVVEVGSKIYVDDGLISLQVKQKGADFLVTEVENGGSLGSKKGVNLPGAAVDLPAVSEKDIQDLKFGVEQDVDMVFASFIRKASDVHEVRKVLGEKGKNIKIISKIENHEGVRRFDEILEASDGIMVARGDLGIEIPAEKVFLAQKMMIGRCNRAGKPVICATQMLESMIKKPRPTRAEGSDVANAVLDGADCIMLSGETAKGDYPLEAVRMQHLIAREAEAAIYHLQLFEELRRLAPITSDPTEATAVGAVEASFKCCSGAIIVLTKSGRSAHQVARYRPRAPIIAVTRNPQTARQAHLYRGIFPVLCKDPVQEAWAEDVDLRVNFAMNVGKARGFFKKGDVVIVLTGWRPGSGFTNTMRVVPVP

Key:
[1] = molecular target: endogenous STAT5A (human (endogenous in NCI-H1299)) (UniProt P42229); assay: co-IP; cells transfected with wild-type, S202A or S202D PKM2 vectors, with or without IGF-1 for 30 min; immunoprecipitated with STAT5A-specific antibody; western blot with anti-PKM2 antibody
[2] = molecular target: Myc/His-tagged wild-type PKM2 (UniProt P14618); assay: co-IP; anti-Myc antibody; lysates of cells expressing Myc/His-PKM2 and/or STAT5A, with or without IGF-1
[3] = molecular target: Flag-tagged pyruvate kinase muscle type 2 (PKM2) (UniProt P14618); assay: co-IP; H1299 cells transfected with Flag-PKM2, starved, with or without IGF-1 (200 ng/ml); RIPA lysate; anti-Flag beads, 12 h at 4°C; eluted with Flag peptide (0.1 mg/ml); western blot with anti-AKT or STAT5A antibody
[4] = molecular target: Flag-tagged pyruvate kinase muscle type 2 (PKM2) (UniProt P14618); assay: co-IP; nuclear fraction (nuclear extracts) of cells treated with IGF-1

Substance	binding [1]	other results
PKM2(S202D), phosphorylation mimetic mutant (from UniProt P14618 1-531) (enzyme)	binds	–
STAT5A expressed from a transfected vector (from UniProt P42229 1-794)	–	binding [2]: binds
endogenous STAT5A (from UniProt P42229 1-794)	–	binding [3]: binds; binding [4]: binds

The next lines start with results.

binding [1]	Substance	other results
no binding	PKM2(S202A) (from UniProt P14618 1-531) (enzyme)	–
binds	Myc/His-tagged wild-type PKM2 (from UniProt P14618 1-531) (enzyme)	–
